In publication PMC4336329 (PLoS ONE, 2015):
About 2,200 (0.71%) of roughly 310,000 compounds showed an effect of 50% or more. Effects have a minus sign here. Some of the results follow.

Target: human ether-à-go-go-related gene (hERG) potassium channel (human, UniProt Q12809)
Assay: primary screen, population patch clamp on CHO cells stably expressing hERG

Sequence of human ether-à-go-go-related gene (hERG) potassium channel (Q12809 whole entry, looked up): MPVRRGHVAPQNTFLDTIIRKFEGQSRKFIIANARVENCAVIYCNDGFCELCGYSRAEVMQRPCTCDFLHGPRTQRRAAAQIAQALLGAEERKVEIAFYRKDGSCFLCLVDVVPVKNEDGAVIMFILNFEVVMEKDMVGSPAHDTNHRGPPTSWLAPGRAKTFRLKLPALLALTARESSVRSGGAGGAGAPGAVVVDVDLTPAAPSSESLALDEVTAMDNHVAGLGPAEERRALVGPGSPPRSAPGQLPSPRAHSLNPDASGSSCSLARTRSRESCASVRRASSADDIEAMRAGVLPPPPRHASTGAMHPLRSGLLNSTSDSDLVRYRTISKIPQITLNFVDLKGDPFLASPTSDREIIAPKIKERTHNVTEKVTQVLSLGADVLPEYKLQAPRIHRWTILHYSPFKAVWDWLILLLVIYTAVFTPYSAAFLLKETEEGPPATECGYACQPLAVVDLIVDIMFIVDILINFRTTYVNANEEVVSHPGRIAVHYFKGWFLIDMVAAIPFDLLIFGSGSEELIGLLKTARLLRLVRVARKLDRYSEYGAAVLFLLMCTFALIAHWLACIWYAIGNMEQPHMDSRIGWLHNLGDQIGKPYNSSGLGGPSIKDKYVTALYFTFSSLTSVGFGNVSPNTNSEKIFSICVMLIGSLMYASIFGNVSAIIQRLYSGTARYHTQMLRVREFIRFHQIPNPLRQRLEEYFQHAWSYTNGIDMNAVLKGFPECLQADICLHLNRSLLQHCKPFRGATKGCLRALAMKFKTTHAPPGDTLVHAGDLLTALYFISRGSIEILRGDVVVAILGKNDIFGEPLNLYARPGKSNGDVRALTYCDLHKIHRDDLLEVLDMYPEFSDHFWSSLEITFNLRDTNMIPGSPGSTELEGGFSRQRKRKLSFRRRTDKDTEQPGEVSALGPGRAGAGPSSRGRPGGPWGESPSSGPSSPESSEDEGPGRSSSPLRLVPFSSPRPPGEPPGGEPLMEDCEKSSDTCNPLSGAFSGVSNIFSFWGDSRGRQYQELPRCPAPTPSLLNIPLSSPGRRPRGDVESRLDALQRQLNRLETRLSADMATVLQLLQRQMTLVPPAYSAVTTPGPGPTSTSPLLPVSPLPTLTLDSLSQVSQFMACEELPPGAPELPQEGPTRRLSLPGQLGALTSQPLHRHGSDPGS

SMILES	hERG current change (%, negative = inhibition) at 1uM [%]
O=C(Nc1ncnc2c1ncn2C1OC(COC(=O)c2ccccc2)C(F)C1O)c1ccccc1 (stereo not drawn)	10.1
COc1ccc(CNC(=O)C[C@H]2C(=O)N(CCc3ccccc3)C[C@@H]2Cc2ccccc2)cc1	-2.82
Cc1ccc(C)c(Cn2c(=O)c3c(nc4n3CCN4Cc3ccco3)n(C)c2=O)c1	-0.256
O=CN1CCN(C(C(=O)NC2CCCCC2)c2ccc(Cl)cc2)CC1 (stereo not drawn)	-3.84
CCOC(=O)Cn1c(=NC(=O)CN2C(=O)CCC2=O)sc2cc(S(N)(=O)=O)ccc21	16.8
Cc1[nH]n(-c2ccccc2)c(=O)c1CCOC(=O)c1cccc(C(F)(F)F)c1	14.7
COc1ccc(NC(=S)NC2CCCC2)c(OC)c1	12.3
COC(=O)c1ccc(NC(=O)CCN2C(=O)NC(C)(C)C2=O)cc1	6.67
O=C(CCC(=O)N1CCOCC1)NCCc1ccccc1	8.81
CC1CCN(C(=O)CSc2nnc(-c3cccnc3)o2)CC1	11.1
Cc1ccc(S(=O)(=O)N2CCN(C(=O)COC(=O)CSc3ccccc3)CC2)c(C)c1	13.7
O=C(CN1CCCc2ccccc21)N/N=C/c1c(O)ccc2ccccc12	6.26
COc1cccc(-c2nc(CS(=O)(=O)CC(=O)N3CCCCC3)c(C)o2)c1	6.82
COc1cccc(/C=N/NC(=O)C(=O)N2CCCC2)c1O	1.73
COc1ccc(C2OC(=O)CC2C(=O)NCc2ccc(F)cc2)cc1OC (stereo not drawn)	5.36
CC(C)(C)OC(=O)NCCCCC1=CC2=CC(=O)C(C)(O)C(=O)C2=CO1 (stereo not drawn)	8.59
Cc1cc(C)cc(C(=O)NC(CC(N)=O)c2ccc(N3CCN(c4ccccc4)CC3)c([N+](=O)[O-])c2)c1 (stereo not drawn)	11.4
CCCSc1nc(-n2ncc(C#N)c2N)c2c3c(sc2n1)CCC(C)C3 (stereo not drawn)	6.14
CCN(CC)C(=O)CNC(=O)c1nn(-c2ccc(OC)c(Cl)c2)c(=O)c2ccccc12	11.4
Cc1ccc2c(c1)C(c1ccccc1)N(C(=O)c1ccccc1[N+](=O)[O-])CC(=O)N2 (stereo not drawn)	3.69
CCc1cc(CNC(=O)CC2C(=O)NCCN2Cc2c(F)cccc2Cl)on1 (stereo not drawn)	8.38
Cc1ccc(N/N=C(/Sc2nnnn2-c2ccccc2)C(=O)c2ccccc2)cc1	9.95

SMILES	hERG current change (%, negative = inhibition) at 1uM [%]
Cn1nc(-c2ccccc2F)c2cc(C(=O)N3CCN(C(=O)c4ccco4)CC3)sc21	-5.1
O=C1c2ccccc2N2C(=O)c3ccccc3C2N1O (stereo not drawn)	21.3
O=C(c1ccc(S(=O)(=O)N2CCOCC2)cc1)N(c1ccc(F)cc1)C1C=CS(=O)(=O)C1 (stereo not drawn)	-2.37
COc1ccc(N(C)S(=O)(=O)c2cccc(C(=O)Nc3ccc(-n4cnnn4)cc3)c2)cc1	7.38
Cc1cc(Cl)ccc1NC(=O)CSc1n[nH]c(N)n1	11.1
COc1cc(/C=N/NC(=O)Cn2nc([N+](=O)[O-])cc2C)cc(Br)c1OCc1ccccc1	14.7
Cc1[nH]c2ccccc2c1CCN(Cc1cccs1)C(=S)Nc1ccccc1	16.8
OCCN(Cc1ccccc1)C(=S)Nc1ccc(F)cc1	13.5
CCCCOP(=O)(c1ccc(N(C)C)cc1)C(O)c1ccc(OC)cc1 (stereo not drawn)	-1.55
COC(=O)C1=C(C)N(c2ccccc2)/C(=C/c2cccs2)C1=O	10.9
CCOCCCNS(=O)(=O)c1ccc2c(c1)oc(=O)n2CC(=O)OCC	10.3
Cc1c(Cl)cccc1NC(=O)CSc1nncn1-c1ccccn1	15.8
Cc1ccccc1C(=O)NCC(=O)NNC(=S)NC(=O)c1ccccc1C	9.81
CN(C)/C=N/NC(=O)C1Cc2c(ccc3ccccc23)O1 (stereo not drawn)	7.51
COc1ccc(/C=N/NC(=O)c2[nH]nc3c2CCc2ccccc2-3)cc1OC	11.4
Cc1[nH][nH]c(=O)c1C=NCc1ccc(Cl)cc1	14.5
Clc1ccc(OCCCc2nc(-c3ccncc3)no2)c(Cl)c1	11.4
CC1(OC(=O)CCc2ccccc2)C(=O)C=C2C=C(c3ccc(C#N)cc3)N(C3CCCC3)C=C2C1=O (stereo not drawn)	7.68
COc1ccccc1C(=O)Nc1ccc(C2=NNC(=O)CC2C)cc1 (stereo not drawn)	12.7
O=C(CSc1nnc(NC(=O)C2CCC2)s1)Nc1ccccc1	13.3
Cc1nc2ccc3nc(NC(=O)C4COc5ccccc5O4)sc3c2s1 (stereo not drawn)	7.62
CC(=O)Nc1ccc(OC(=O)c2ccc(Br)c([N+](=O)[O-])c2)cc1	11.8

SMILES	hERG current change (%, negative = inhibition) at 1uM [%]
CCN1CCN(C(=O)c2ccc(COc3ccc(Cl)cc3)o2)CC1	-20
N#C/C(=C(/O)c1ccco1)c1nc2ccccc2s1	10.4
CC(C)C(NC(=O)C(NC(=O)C1OC2OC(C)(C)OC2C2OC(C)(C)OC12)C(C)C)C(=O)O (stereo not drawn)	12.3
Cc1oc(-c2ccccc2Cl)nc1CS(=O)(=O)CC(=O)N1CCOCC1	-3.97
CCc1ccc(OCC(=O)NNC(=O)CNC(=O)c2ccc(Br)o2)cc1	4.23
Cc1ccccc1-n1c(SCC(=O)N2CCCCC2)nc(O)cc1=O	18.7
CC(NC(=O)c1ccccc1Br)C1CC2CCC1C2 (stereo not drawn)	12.6
O=C(NC1CCCCC1)c1ccc2snnc2c1	12.8
Cc1cccc(NC(=O)C2CCCC2)c1	4.32
CN(C)c1nc(OCCNC(=O)Nc2ccccc2)nc(N(C)C)n1	12.2
O=C(COC(=O)C1CC2C=CC1C2)NCc1ccc(F)cc1 (stereo not drawn)	9.12
Cc1nc(=O)c(-c2ccccc2)c(C)n1-c1ccccc1	16.6
Cc1ccc(NS(=O)(=O)c2ccc(OCC(=O)N3CCOCC3)cc2)cc1	3.02
COCCn1c(SCC(=O)Nc2nc(C)c(Cl)cc2Cl)nc2ccccc21	-0.266
CC1CCN(C(=O)N2c3ccccc3Sc3ccccc32)CC1	4.18
CC1CCCN(C(=O)c2ccc3c(c2NCCO)C(=O)c2ccccc2C3=O)C1 (stereo not drawn)	-2.57
Oc1ccccc1N1CCN(C(=S)NCCc2ccccc2)CC1	4.72
COc1cc(CCC(=O)Nc2cnc3ccccc3c2)cc(OC)c1OC	2.31
O=C(COC(=O)c1cccc(C(=O)OCC(=O)c2ccc(Br)cc2)n1)c1ccc(Br)cc1	6.91
CSCC[C@H](NC(=O)C1CCC(CNC(=O)[C@@H]2CCCN2C(=O)OC(C)(C)C)CC1)C(=O)O (stereo partly drawn)	4.54
CC(C)(C)Sc1ccc(N)nc1.Cl	10
O=C(Nc1ccsc1C(=O)NC1CCCCC1)c1ccccc1	11.3

SMILES	hERG current change (%, negative = inhibition) at 1uM [%]
CCC(C)N1C(=O)/C(=C\c2ccc(N3CCCCCC3)cc2)C(=O)NC1=S (stereo not drawn)	6.54
COc1cc(NC(=O)COC(=O)Cc2ccsc2)cc(OC)c1	7.2
COc1ccc(C2(C)NC(=O)N(CC(=O)Nc3ccc4c(c3)OCO4)C2=O)cc1OC (stereo not drawn)	1.57
CC12CCC(=O)N1C(C(=O)N1CCN(S(=O)(=O)c3cccc(C(F)(F)F)c3)CC1)CS2 (stereo not drawn)	8.04
CC1CCC(NC(=O)CN2CCN(S(=O)(=O)c3cccs3)CC2)CC1 (stereo not drawn)	1.76
O=C(Nc1ccc(F)cc1)Nc1cc(OCC(F)(F)F)cc(OCC(F)(F)F)c1	6.79
O=C(NC1CCCCC1)C(c1cccnc1)N(C(=O)c1csnn1)c1ccccc1F (stereo not drawn)	11.6
CCN1CCCC(CO)(Cc2ccccc2)C1 (stereo not drawn)	4.17
Cc1ccc(C)c(NS(=O)(=O)c2c(C)[nH]c(C)c2C(=O)N2CCCCC2)c1	-4.64
Cc1cccc(C)c1OCc1n[nH]c(=S)n1N	14.4
Cc1cc(Cl)ccc1OC(C)C(=O)Nc1ccccc1N1CCOCC1 (stereo not drawn)	5.37
COc1ccc(Cn2cc([N+](=O)[O-])nc2C)cc1[N+](=O)[O-]	10.3
Cc1ccc(S(=O)(=O)CCC(=O)Nc2nnc(-c3cccs3)o2)cc1	3.24
Cc1ccc2cc3cc(C(=O)N4CC(C)CC(C)C4)oc3nc2c1 (stereo not drawn)	1.87
CC(C)c1cc2cc3ccc(=O)oc3cc2o1	0.967
COCCn1c(-c2cccs2)csc1=Nc1cccnc1	6.96
Cc1ccc(NC(=O)COc2ccc(N3CC(C(N)=O)CC3=O)cc2)c(C)c1 (stereo not drawn)	13.5
O=C(COc1ccccc1)Nc1nc(-c2ccncc2)cs1	6.85
CC(CC(=O)N1CCN(S(=O)(=O)c2ccc([N+](=O)[O-])cc2)CC1)c1ccccc1 (stereo not drawn)	-50.3
COCCN(C(=O)COC(=O)c1cnc(C)cn1)c1c(N)n(Cc2ccccc2)c(=O)[nH]c1=O	6.64
COc1cccc(NC(=O)CSc2nnc(Cc3cccn3C)n2-c2ccc(F)cc2)c1	5.79
